Molecular target: calmodulin (CaM)
Assay: SEC

B1: SUMO-tagged NaV1.5 III-IV linker peptide ([…]) (domain or fragment)
chain: not shown
- binding result: binds

— publication PMC5299624 (The Journal of General Physiology, 2017)
